These results are taken from patent publication US20150051171A1, “TETRAZOLINONE COMPOUNDS AND ITS USE AS PESTICIDES” (SUMITOMO CHEMICAL COMPANY, LIMITED, priority 2012, published 2015).

Usually mortality stands for the share of the test organisms that died.

Holding throughout (assay): whole plant or invertebrate
The test system of assay [1] is common house mosquito (Culex pipiens pallens). As to conditions: 192 h, read-out: mortality of insects. The procedure: The testing drug solutions to be used in this Test example were prepared by diluting the formulations prepared according to the above-mentioned Formulation examples with an ion-exchange water so that the active ingredient concentration was set to 500 ppm. The above-mentioned drug solutions 0.7 mL were added to an ion-exchange water 100 mL so that the active ingredient concentration was set to 3.5 ppm. Twenty (20) last instar larvae of common house mosquito (Culex pipiens pallens) were released into the solutions and after 8 day, the number of the dead insects was counted.
The mortality of insects was calculated by the following equation.
(§1) Mortality of insects(%)=(Number of dead insects/Number of tested insects)×100

The test system of assay [2] is cabbage moth (Plutella xylostella). As to conditions: 120 h, read-out: mortality of insects. The method, then: The testing drug solutions to be used in this Test example were prepared by diluting the formulations prepared according to the above-mentioned Formulation examples with an ion-exchange water so that the active ingredient concentration was set to 500 ppm. Cabbage (green ball) was planted in a polyethylene cup and was grown until the third true leaf or the fourth true leaf was developed. To the cabbage (Brassicae oleracea) was spread the above-mentioned testing solutions in a ratio of 20 mL/cup. After the drug solutions were dried, to a polyethylene cup (diameter 5.5 cm) covered with a filter paper on the bottom, the cabbage cut out from the root was installed and five heads of cabbage moth (Plutella xylostella) at the three instar larval stages were released into the cup and the cup was covered with the lid. The cup was held at 25° C. and after 5 days, the number of the surviving insects was counted and the mortality of insects was calculated by the following equation.
as §1

Assay [3] concerns German cockroach (Blattella germanica). The note with it: 144 h, read-out: mortality of insects. The procedure:
The testing drug solutions to be used in this Test example were prepared by diluting the formulations prepared according to the above-mentioned Formulation examples with an ion-exchange water so that the active ingredient concentration was set to 500 ppm.
A bottom of a polyethylene cup having 5.5 cm of diameter was lain with filter paper with the same size as the bottom and thereto was added dropwise the above-mentioned testing solutions 0.7 mL onto the filter paper and sucrose 30 mg as feed was placed uniformly thereon. Two (2) heads of male German cockroach (Blattella germanica) were released into the polyethylene cup and the cup was covered with the lid. After 6 days, the life and death of the insects of the German cockroach was observed.

Structures are written as SMILES.

Consider `CCCCc1cccc(-n2nnn(C)c2=O)c1COc1ccn(-c2ccc(Cl)cc2)n1` [Present compound 38, 1-(2-{[1-(4-chlorophenyl)-1H-pyrazole-3-yl]oxymethyl}-3-butylphenyl)-4-methyl-1,4-dihydrotetrazole-5-one], for which, in assay [1], the mortality at 3.5 ppm came out at 100%.

On to `COc1cccc(-n2nnn(C)c2=O)c1COc1ccn(-c2ccc(Br)cc2)n1` [Present compound 49, 1-(2-{[1-(4-bromophenyl)-1H-pyrazole-3-yl]oxymethyl}-3-methoxyphenyl)-4-methyl-1,4-dihydrotetrazole-5-one], for which the mortality at 500 ppm in assay [2] amounted to 80%. In the case of `Cc1cccc(-n2nnn(C)c2=O)c1COc1ccn(-c2c(F)c(F)c(F)c(F)c2F)n1` [Present compound 64, 1-(2-{[1-(2,3,4,5,6-pentafluorophenyl)-1H-pyrazole-3-yl]oxymethyl}-3-methylphenyl)-4-methyl-1,4-dihydrotetrazole-5-one], in assay [1], the mortality at 3.5 ppm was determined as 100%. Consider `Cc1ccccc1-n1ccc(OCc2c(C)cccc2-n2nnn(C)c2=O)n1` [Present compound 77, 1-(2-{[1-(2-methylphenyl)-1H-pyrazole-3-yl]oxymethyl}-3-methylphenyl)-4-methyl-1,4-dihydrotetrazole-5-one], for which, in assay [3], the mortality at 500 ppm is 100%. `COc1ccccc1-n1ccc(OCc2c(Cl)cccc2-n2nnn(C)c2=O)n1` [Present compound 86, 1-(2-{[1-(2-methoxyphenyl)-1H-pyrazole-3-yl]oxymethyl}-3-chlorophenyl)-4-methyl-1,4-dihydrotetrazole-5-one]: the mortality at 500 ppm in assay [2] worked out at 80%. Further, in assay [1], the mortality at 3.5 ppm came out at 100%. On to `COc1ccccc1-n1ccc(OCc2c(C3CC3)cccc2-n2nnn(C)c2=O)n1` [Present compound 89, 1-(2-{[1-(2-methoxyphenyl)-1H-pyrazole-3-yl]oxymethyl}-3-cyclopropylphenyl)-4-methyl-1,4-dihydrotetrazole-5-one], for which the mortality at 500 ppm in assay [2] was 80%.
